According to PMC5566378, “The human IL-17A/F heterodimer: a two-faced cytokine with unique receptor recognition properties” (Scientific Reports, 2017):

Assays:
[1] = target: T1, human IL-17RC extracellular domain (human, UniProt Q8NAC3-2 21-467); assay: SPR; Biacore 8K; IL-17RC ECD amine-coupled on a CM4 chip (about 500 RU); cytokines as analytes in PBS pH 7.4, 3 mM EDTA, 0.05% Tween20; 20 °C, 30 µl/min; 1:1 Langmuir model or steady-state analysis; details: both partners purified
T1 construct: human IL-17RC, full-length extracellular domain, residues 21-467 of UniProt Q8NAC3-2, cloned behind the CD33 signal peptide; numbers count on: isoform Q8NAC3-2; also called IL-17RC ECD; IL-17RC receptor
T1 sequence (looked up): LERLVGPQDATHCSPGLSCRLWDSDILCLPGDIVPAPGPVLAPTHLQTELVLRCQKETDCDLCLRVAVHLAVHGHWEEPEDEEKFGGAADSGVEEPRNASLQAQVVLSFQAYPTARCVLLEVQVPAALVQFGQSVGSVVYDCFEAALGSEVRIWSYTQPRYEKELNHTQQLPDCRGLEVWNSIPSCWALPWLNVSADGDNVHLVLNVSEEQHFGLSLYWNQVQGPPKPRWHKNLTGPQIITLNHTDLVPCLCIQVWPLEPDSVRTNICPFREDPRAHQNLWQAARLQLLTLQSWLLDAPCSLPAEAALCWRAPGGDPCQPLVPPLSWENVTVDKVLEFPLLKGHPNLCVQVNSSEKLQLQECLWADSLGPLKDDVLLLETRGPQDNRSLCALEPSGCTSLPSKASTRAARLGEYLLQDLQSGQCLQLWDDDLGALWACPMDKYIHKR

[2] = target: T2, human IL-17RA extracellular domain (human, UniProt Q96F46 33-320, biotin on the Avi-tag (E. coli BirA), for the SPR measurements only); assay: SPR; Biacore 8K; biotinylated IL-17RA ECD immobilised on a streptavidin chip (about 500 RU); cytokines as analytes in PBS pH 7.4, 3 mM EDTA, 0.05% Tween20; 20 °C, 30 µl/min; 1:1 Langmuir model or steady-state analysis; details: both partners purified
T2 construct: human IL-17RA, full-length extracellular domain, residues 33-320 of UniProt Q96F46, cloned behind the CD33 signal peptide; The same construct was used unbiotinylated for the complex and its crystals (treated with PNGaseF and Endoglycosidase H) and biotinylated for SPR; also called IL-17RA ECD; IL-17RA receptor; source: GnTI-deficient HEK293S, transient expression, secreted, purified (anti-APP …)

fold reduction in binding affinity against wild-type IL-17A [1]: ≥ 200 fold
fold drop in binding affinity against wild-type IL-17A [2]: ~400 fold
B1: human IL-17A homodimer, Arg69 to alanine mutant (ligand)
chain: not shown
notes: signal peptide in the construct; human IL-17A, […] of […] with the native signal peptide, R69A; also called IL-17A R69A; point mutant of the IL-17A homodimer; source: HEK293S, transient expression, secreted, purified
